Laboratory results: PubChem BioAssay AID1508624 (National Center for Advancing Translational Sciences (NCATS), 2021)
About 120 (0.25%) of roughly 48,000 compounds were called active. Not shown: some 4% with an inconclusive outcome. Calls come from the whole dose curve; as a rule, active = well fitted activation curve with a large enough effect; inconclusive = small, poorly fitted or top-dose-only effect, or another doubt; inactive = no such curve, though single readings can be large or run the other way. The list shows a part of the results.

Assay: Primary qHTS for Identification of Small Molecule Activators of Huntingtin-Antisense Promoter Activity; note: nearly all actives have a fitted effect of over 55% in size
Conditions: HEK293 HTT-AS promoter firefly luciferase reporter, 24 h; series mostly up to 57.5 µM; activity change, positive = activation: at the top concentration
In short: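 Luminescence was read after Dual-Glo reagent and a 10 min room-temperature incubation. Values were normalized to vehicle (0% activity) and zero RLU (-100% activity). Reporter HEK293 cells had been exposed to compounds (up to 57.5 uM final) for 24 h.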

Activity change, positive = activation, inactive:
CCC(=O)Nc1cccc(-c2cn3c(C)csc3n2)c1 12.2%, O=C(CCC1N=C2c3ccccc3N=C(SCc3cccc(Cl)c3)N2C1=O)NCc1cccs1 (stereo unspecified) 4.86%, COc1cccc(C(=O)N(Cc2cccc(Cl)c2)Cc2ccco2)c1 -28.4%, CC(C)(C)c1ccc(OCC(=O)Nc2c(C(=O)c3ccc(F)cc3)oc3ccccc23)cc1 -3.5%, COc1cc(C(=O)NCCSc2c(-c3ccccc3)[nH]c3ccccc23)cc(OC)c1OC -41.2%, CC1CCN(S(=O)(=O)c2ccc3nc(N4CCN(c5ccccc5)CC4)ccc3c2)CC1 -1.55%, Oc1c(C(c2ccc(Cl)cc2)N2CCOCC2)sc2nc(-c3ccco3)nn12 (stereo unspecified) 1.33%, Fc1cccc(CSc2nc(NCCc3ccccc3)c3ccccc3n2)c1 -23%, COc1ccccc1OCC(=O)Nc1cc(-c2ccc(C)cc2)no1 -0.295%, CC(=O)c1cc(-c2ccc(F)cc2)n(CC(=O)NCc2ccc(C)cc2)c1C -19.2%, COc1cc(NS(=O)(=O)c2cccs2)cc(OC)c1 -14.5%, Cn1c(=O)c(-c2c(Cl)cccc2Cl)cc2cnc(Nc3cccc(C(=O)O)c3)nc21 7.24%, COc1cc(Cl)c(C)cc1NC(=O)NC1COc2ccccc2C1 (stereo unspecified) -23.3%, CCCNC(=O)Cn1c(=O)cc(C)c2c(C)nn(-c3cccc(F)c3)c21 -18.9%, CCc1ccc(-c2ccc3nnc(SCC(=O)Nc4cccc(C(C)=O)c4)n3n2)cc1 -1.48%, Cc1onc(-c2ccccc2)c1C(=O)Cl -1.93%, COc1ccc(CCNC(=O)Cn2c(-c3cccs3)cc3cc(F)ccc32)cc1OC -41.1%, COc1ccc(NC(=O)c2oc3ccccc3c2NC(=O)c2cc(OC)c(OC)c(OC)c2)cc1 -27.2%, COc1ccc(CCNC(=O)CN2C(=O)COc3ccccc32)cc1OC -12.5%, COc1cccc(CNC(=O)c2ccc(CS(=O)c3ccccc3)o2)c1 (stereo unspecified) -21.6%, Cc1cccc(Oc2nc3c(c(=O)n(C)c(=O)n3C)n2C)c1C 6.21%, CCOC(=O)N1CCN(C(=O)c2cnn(-c3cccc(F)c3)c2-n2cccc2)CC1 -10.8%, CCc1ccccc1NC(=O)C(CCSC)NS(=O)(=O)c1ccc2c(c1)oc(=O)n2C (stereo unspecified) -4.33%, N#Cc1c(-c2ccccc2)cc(-c2ccccc2)nc1SCC(=O)Nc1ccc(Cl)cc1 -13.1%, Cc1ccccc1-c1nn2c(=O)cc(CN3CCN(C(=O)c4ccccc4Br)CC3)nc2s1 -11.9%, Cc1cc(C)cc(OCC(=O)NCC2(N3CCOCC3)CCCCC2)c1 -18.1%, COc1ccc([C@@H]2Sc3ccccc3N(CCN(C)C)C(=O)[C@@H]2OC(C)=O)cc1 -10.7%, O=C(Cn1c(SCCOc2ccccc2Cl)nc2ccccc21)N1CCCCC1 -20.4%, CCCc1cc(=O)[nH]c(SCc2nc(-c3ccc(OC)cc3)no2)n1 -12.9%, Cc1cn([C@H]2C[C@H](N=[N+]=[N-])[C@@H](CO)O2)c(=O)[nH]c1=O, COc1ccc(CC(=O)NCCc2csc(-c3cccc(F)c3)n2)cc1OC -16.8%, N#Cc1ccccc1Cn1c(=O)n(-c2ccc(F)c(Cl)c2)c(=O)c2sccc21 -25.4%, Cc1ccc(C)c(NC(=O)Cn2c(=O)n(Cc3ccco3)c(=O)c3ccc(C(=O)NC4CCCC4)cc32)c1 -29%, O=C(C1CCN(c2ncnc3c2nc2n3CCCCC2)CC1)N1CCN(c2ccccc2)CC1 -32.2%, CCOC(=O)c1ccccc1NC(=O)c1sc2ncn(CC)c(=O)c2c1C -8.7%, COc1cccc(-c2nc(CS(=O)(=O)CC(=O)NCCCc3ccccc3)c(C)o2)c1 -15.1%, Cc1ccc(S(=O)(=O)N2CCCc3cc(NC(=O)c4ccc(C(C)(C)C)cc4)ccc32)cc1 -17%, CCN(CC)c1ccc(NC(=O)c2sc3nc(-c4ccccc4)cn3c2C)cc1 -18.5%, Cc1nc(-c2ccc(F)cc2)sc1CCNC(=O)C(=O)Nc1ccc2c(c1)OCO2 -9.26%, CCOC(=O)c1cccc(NC(=O)NCc2ccc3c(c2)CCN3C(=O)CC)c1 -8.28%, CCCn1c2ccccc2c2cnn(CC(=O)NCCc3cc(OC)ccc3OC)c(=O)c21 1.68%, COc1ccc(N2CCN(C(=O)c3nn(C)c4c3CSc3ccccc3-4)CC2)cc1 -9.71%, CCc1ccc(C(=O)c2cn(CC(=O)Nc3ccc(OC)c(Cl)c3)c3nc(C)ccc3c2=O)cc1 -9.02%, CCCN(C(=O)NCc1noc2ccc(C)cc12)c1ccc(Cl)c(Cl)c1 -10%, CC1=C(C(=O)Nc2cccc(C(F)(F)F)c2)C(c2ccccn2)n2ncnc2N1 (stereo unspecified) -11.2%, CCC(=O)Nc1ccccc1-c1nc2ccccc2n(CC(=O)c2ccc(Br)cc2)c1=O -12.6%, Cc1ccc(Cl)cc1NC(=O)Cn1cc(S(=O)(=O)Cc2ccccc2Cl)c2ccccc21 -22.5%, COc1cccc(CN2CCc3nc(N4CCN(C)CC4)ncc3C2)c1 -14.2%, CCCNC(C)C(=O)Nc1c(C)csc1C(=O)OC (stereo unspecified) -6.91%, CCOc1ccc(CCNC(=O)Cc2ccc(NC(=O)N3CCSc4ncccc43)cc2)cc1 -21.8%, COc1ccc(-n2nc(C(=O)N3CCN(c4cccc(C(F)(F)F)c4)CC3)c3c4ccccc4n(C)c3c2=O)cc1Cl -6.02%, COc1cccc(N2CCN(C(=O)Cn3ncc4c5ccccc5n(C)c4c3=O)CC2)c1 -4.78%, Cc1cccc(-c2noc(-c3cc(-c4ccc(F)cc4)n[nH]3)n2)c1 -10.5%, Cc1oc2ncn(C)c(=O)c2c1C(=O)NCc1ccccc1 -8.73%, CNCc1ccc(-c2[nH]c3cc(F)cc4c3c2CCNC4=O)cc1 -6.36%, COc1cc(OC)cc(C(=O)Nc2nc(-c3nnn(-c4ccc(F)c(Cl)c4)c3C)ns2)c1 -48.1%, O=C(CSc1nc(O)c(C/C=C/c2ccccc2)c(=O)[nH]1)Nc1cccc(F)c1 -13%, CC(C)(C)c1ccc(S(=O)(=O)N2CCN(C(=O)c3cc(-c4ccc(Br)cc4)n[nH]3)CC2)cc1 1.54%, O=C(NCc1ccc(Cl)cc1)C1CCN(S(=O)(=O)c2ccc3c(c2)CCCN3C(=O)C2CCC2)CC1 0%, CCOc1ccc(NC(=O)c2noc3c2CSc2ccccc2-3)cc1 14.8%, CCOCCc1nn2c(=O)cc(COC(=O)c3ccco3)nc2s1 -8.08%, COc1cc(-c2noc(-c3ccc(N4CCCCC4)c([N+](=O)[O-])c3)n2)cc(OC)c1OC -6.96%, COc1cccc(CNC(=O)c2nnc(Cc3ccc(Cl)cc3)o2)c1 -8.91%, CCN1CCN(CCCNC(=O)c2ccc3c(c2)sc2nc(-c4ccc(C)cc4)cn23)CC1 -17.9%, O=C(CSc1ccc(-c2cccs2)nn1)Nc1cccc(F)c1 -27.7%, COc1ccccc1N1CCN(c2ncnc3onc(C)c23)CC1 -25.7%, COc1ccc(-c2cc(C)no2)cc1S(=O)(=O)N1CC(C)Oc2ccccc21 (stereo unspecified) -29.8%, COc1ccc(-n2c(SCC(=O)NCc3ccccc3)nc3n[nH]c(C)c3c2=N)cc1 -30.7%, CCCn1c(=O)c2sccc2n2c(CCCC(=O)Nc3ccccc3F)nnc12 2.87%, CN(C(=O)c1oc(=O)c2ccccc2c1-c1ccccc1)c1cccc(Cl)c1 -34.1%, COc1cccc(N2CCN(C(=O)Cn3ncc4c(=O)oc5ccccc5c43)CC2)c1 3.43%, O=C1CC(c2cccc(F)c2)c2c(n3ncnc3[nH]c2=O)N1 (stereo unspecified) -6.42%, CCOC(=O)Cn1c(=O)n(C2CCCCC2)c2nc(-c3cccc(C)c3)nc(C(N)=O)c21 -16.1%, Cc1ccc(N2CCN(C(=O)c3c(C)oc4nc(C)nc(N5CCCC5)c34)CC2)c(C)c1 -30%, COc1cccc(N(C)C(=S)Oc2ccc3c(c2)CCCC3)n1, COc1cc(NS(=O)(=O)c2ccc(NC(=O)c3ccc(C(C)=O)cc3)cc2)nc(OC)n1 -16.8%, CCOC(=O)c1cccc(NC(=O)N2CC(CC)Oc3ccccc32)c1 (stereo unspecified) -21%, COc1ccc(NC(=O)c2sc3nc4c(cc3c2N)CCCCCC4)cc1Cl 7.06% [at 11.5 µM, percent change from vehicle, -100% = no light], Cc1cccc(-n2ncc(C(=O)NCc3ccco3)c2C2CCN(C(=O)OC(C)(C)C)CC2)c1 -26.3%, Cc1nc2cccnc2n1C1CCN(S(=O)(=O)c2ccc(C(C)C)cc2)CC1 -39.3%, O=C(CSc1ncc2c(n1)-c1ccccc1N(Cc1ccc(F)cc1)S2(=O)=O)NCc1ccccc1 14%, CCc1nn(CC(=O)NCCN(CC)CC)c(=O)c2cc3occc3n12 -6.76%, Cc1cccc(CNC(=O)CCCN2C(=O)COc3ccc(C)cc32)c1 -13.8%, CCn1c(=O)c2cc(C(=O)N(C)c3cc(Cl)c(OC)cc3OC)sc2c2ccccc21 -3.31%, O=C(c1ccccc1Cl)N1CCN(CCc2ccccn2)CC1 -12.7%, COc1ccc2cc3cc(C(=O)Nc4ccccc4C)oc3nc2c1 -4.5%, COc1ccc(NC(=O)CSc2nc(C)cc(C)c2C(=O)Nc2cccc(C)c2)cc1 -26.2%, COc1cccc(C(=O)Nc2ccccc2-c2nnc(-c3ccc(C(C)(C)C)cc3)o2)c1 -10%, C[C@@H](NC(=O)CN(c1ccccc1)S(=O)(=O)N(C)C)c1ccccc1 -0.273%, CCCOC(=O)c1ccc(Nc2nc3ccccc3nc2-n2nc(C)cc2C)cc1 -1.6%, CCOc1ccc(-c2cc(CCCC(=O)NCCc3ccc(OCC)c(OCC)c3)no2)cc1 -80.4%, Cc1ccc(NC(=O)Nc2ccc3nc(N4CCN(C)CC4)cc(C)c3c2)cc1C -15.8%, CCNC(=O)c1noc(-c2cc(C(C)C)c(O)cc2O)c1-c1ccc(CN2CCOCC2)cc1 -64.1%, Cc1ccccc1NC(=O)c1ccc(F)c(S(=O)(=O)NC2CCCC2)c1 -23.1%, CCN1CCN(C(=O)c2ccc3c(c2)N(Cc2ccccc2F)C(=O)c2ccccc2S3(=O)=O)CC1 -10.2%, Cc1ccccc1NC(=O)Cn1c(=O)n(-c2ccc(CC(=O)NCC3CCCO3)cc2)c(=O)c2ccccc21 (stereo unspecified) -4.33%
